The campaign covered roughly 310,000 compounds. About 2,200 (0.71%) showed an effect of 50% or more. The effect is printed as a negative number. Some of the results follow.

Sequence of human ether-à-go-go-related gene (hERG) potassium channel (Q12809 whole entry, looked up): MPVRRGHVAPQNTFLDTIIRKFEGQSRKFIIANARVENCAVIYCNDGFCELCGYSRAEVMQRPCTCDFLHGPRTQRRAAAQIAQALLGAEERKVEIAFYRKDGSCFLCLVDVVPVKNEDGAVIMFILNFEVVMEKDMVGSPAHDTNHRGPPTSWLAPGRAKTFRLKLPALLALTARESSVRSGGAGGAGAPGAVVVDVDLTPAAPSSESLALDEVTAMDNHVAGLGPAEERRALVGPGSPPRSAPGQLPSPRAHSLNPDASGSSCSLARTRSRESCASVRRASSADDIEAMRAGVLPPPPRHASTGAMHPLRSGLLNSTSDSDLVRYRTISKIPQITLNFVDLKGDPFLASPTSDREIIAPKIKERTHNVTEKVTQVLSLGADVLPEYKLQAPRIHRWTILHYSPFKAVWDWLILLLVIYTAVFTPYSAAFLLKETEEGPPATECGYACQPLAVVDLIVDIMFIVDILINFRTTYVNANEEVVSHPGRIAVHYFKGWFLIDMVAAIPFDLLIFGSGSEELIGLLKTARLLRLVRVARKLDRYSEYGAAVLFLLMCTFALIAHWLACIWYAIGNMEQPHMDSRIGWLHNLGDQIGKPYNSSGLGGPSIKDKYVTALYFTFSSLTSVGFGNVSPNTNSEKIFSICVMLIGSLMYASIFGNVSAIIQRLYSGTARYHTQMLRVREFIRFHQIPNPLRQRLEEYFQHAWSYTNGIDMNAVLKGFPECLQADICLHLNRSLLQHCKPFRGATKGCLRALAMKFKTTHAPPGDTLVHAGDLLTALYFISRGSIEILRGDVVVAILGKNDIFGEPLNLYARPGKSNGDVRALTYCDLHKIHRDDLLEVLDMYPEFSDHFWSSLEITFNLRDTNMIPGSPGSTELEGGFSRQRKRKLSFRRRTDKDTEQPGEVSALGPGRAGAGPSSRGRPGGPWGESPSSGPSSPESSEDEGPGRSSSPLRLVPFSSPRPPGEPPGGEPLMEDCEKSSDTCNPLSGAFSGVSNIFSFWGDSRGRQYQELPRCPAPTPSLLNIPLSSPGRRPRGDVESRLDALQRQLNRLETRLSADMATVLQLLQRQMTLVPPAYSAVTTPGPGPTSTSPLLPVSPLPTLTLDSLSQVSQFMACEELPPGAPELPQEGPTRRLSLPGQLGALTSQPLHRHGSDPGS

This experiment has as its target human ether-à-go-go-related gene (hERG) potassium channel (human, UniProt Q12809). Briefly: primary screen, population patch clamp on CHO cells stably expressing hERG.
Regarding `CCC(C)NC(=O)CN1C(=O)NC2(CCc3ccccc3C2)C1=O` (centres unmarked), the “hERG current change (%, negative = inhibition) at 1uM” value is recorded as 13.2%. Take `CCC(=O)N(CCc1ccccc1)Cc1cc2cc(C)ccc2[nH]c1=O`: the “hERG current change (%, negative = inhibition) at 1uM” value came to 0.576%. Turning to `O=C1NC2=C(C(=O)CCC2)C(c2ccccc2Cl)N1` (centres unmarked), the “hERG current change (%, negative = inhibition) at 1uM” value is 17.4%. Consider `COCCn1ccc2c(OCC(=O)Nc3ccccc3OC)cccc2c1=O`, for which the “hERG current change (%, negative = inhibition) at 1uM” value was 8.49%.

`O=C(CN1CCN(C(=O)c2cccs2)CC1)Nc1ccc(Br)cc1`: the “hERG current change (%, negative = inhibition) at 1uM” value is recorded as -68.2%. On to `CCCCCC(=O)Nc1nc(C)c(-c2csc(Nc3cc(OC)ccc3OC)n2)s1`, for which the “hERG current change (%, negative = inhibition) at 1uM” value was found to be 9.1%.

Regarding `O=C(C[n+]1ccc(Cc2ccccc2)cc1)Nc1ccccc1.[Cl-]`, the “hERG current change (%, negative = inhibition) at 1uM” value is 13.2%.

As to `COc1ccc(N(C)S(=O)(=O)c2cccc(C(=O)Nc3cc(OC)ccc3OC)c2)cc1`, the “hERG current change (%, negative = inhibition) at 1uM” value is reported as 12.6%.

With `S=c1[nH]nc(COc2ccccc2)n1-c1ccccc1`, the “hERG current change (%, negative = inhibition) at 1uM” value came to 7.33%. As for `CCOC(=O)C1=C(C)NC(=O)CC1c1cc2c(cc1Br)OCO2` (centres unmarked), the “hERG current change (%, negative = inhibition) at 1uM” value is 4.31%.

On to `COc1ccc(Nc2oc(COc3ccc(OC)cc3)nc2C#N)cc1`, for which the “hERG current change (%, negative = inhibition) at 1uM” value was 8.9%. The result for `O=C(N/N=C/c1coc2ccccc2c1=O)c1cc(Br)ccc1O` reads 16.2%.

With `CC1(C)Cc2ccccc2-c2nnc(-c3ccc(O)cc3)n21`, the “hERG current change (%, negative = inhibition) at 1uM” value is on record as 16.9%. For `O=C(CCS(=O)(=O)c1ccccc1)N1CCN(c2ccc(F)cc2)CC1`, the “hERG current change (%, negative = inhibition) at 1uM” value is recorded as -1.29%. For `Cc1nnc(NC(=O)C2CCCN2C(=O)Nc2ccccc2)s1` (centres unmarked), the “hERG current change (%, negative = inhibition) at 1uM” value was 15.2%. Regarding `Cc1[nH]n(-c2ccccc2)c(=O)c1N=O`, the “hERG current change (%, negative = inhibition) at 1uM” value amounted to 12.1%. For `Cc1[nH]nc2c1C(c1c[nH]c3ccccc13)C(C#N)=C(N)O2` (centres unmarked), the “hERG current change (%, negative = inhibition) at 1uM” value was 4.49%. Consider `O=C(NC1CC2CCCC(C1)N2Cc1ccccc1)C1CCCCC1` (centres unmarked), for which the “hERG current change (%, negative = inhibition) at 1uM” value was 3.78%. With `CCCCOc1ncnc2c1[nH]c1ccc(F)cc12` the figure was 11.7%. On to `O=C(NCCCn1ccnc1)c1cc(C(=O)C2CCCCC2)c[nH]1`, for which the “hERG current change (%, negative = inhibition) at 1uM” value is 11.8%.

Consider `CC1CC(=O)Nc2ccccc2N1C(=O)Nc1ccccc1` (centres unmarked), for which the “hERG current change (%, negative = inhibition) at 1uM” value is 19.9%. Regarding `COc1cccc(/C=N/NC(=O)c2ccc([N+](=O)[O-])cc2Cl)c1O`, the “hERG current change (%, negative = inhibition) at 1uM” value is reported as 15.1%.

For the compound `COc1ccc(O)c(C(=O)c2cnc3onc(C)c3c2)c1`, the “hERG current change (%, negative = inhibition) at 1uM” value is 13.8%. In the case of `Cc1nnc(SCc2cn3ccsc3n2)n(N)c1=O`, the “hERG current change (%, negative = inhibition) at 1uM” value worked out at 0.818%. With `COc1ccc(-n2c(SCC(=O)NCc3ccco3)nnc2-c2c[nH]c3ccccc23)cc1`, the “hERG current change (%, negative = inhibition) at 1uM” value is 10.3%. Consider `COc1ccc(NC(=O)CN(C)C(=O)/C=C/c2ccc(OCc3ccccc3)cc2)cc1`, for which the “hERG current change (%, negative = inhibition) at 1uM” value is on record as 11.1%.

The values above are taken from paper PMC4336329 (PLoS ONE, 2015).
